Test results as given in PubChem BioAssay AID2451 (National Center for Advancing Translational Sciences (NCATS), 2010).
Several values for one entry are separate records, joined by “and”; a condition that tells them apart may be missing. Identical values can stand only once. About 2,100 (0.72%) of roughly 290,000 compounds were called active. Inconclusive results, whose numbers are uncertain, are shown with a selection of clear calls. The call rests on the fitted dose curve; in most records, active means well fitted inhibition curve with a large enough effect; inconclusive means small, poorly fitted or top-dose-only effect, or effect the other way; inactive means flat fitted curve, though single readings scatter. Potencies of inconclusive entries are doubtful fits and often do not repeat.

target: Fructose-bisphosphate aldolase (Giardia intestinalis (strain ATCC 50803 / WB clone C6)) (UniProt A8B2U2); test: qHTS Assay for Inhibitors of Fructose-1,6-bisphosphate Aldolase from Giardia Lamblia; settings: purified Giardia FBPA; series mostly up to 59.6 µM; further: nearly all actives have a fitted effect of over 55% in size
Method in brief: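 40 nM FBPA preincubated 10 min at RT with compound (up to 57.5 uM final), then substrate plus GAPDH/TPI/NAD/arsenate coupling and diaphorase/resazurin added. Fluorescence read after 20 min at RT, 525/598 nm.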
Potency means the concentration at half of the fitted maximal effect; tags describe the fitted curve by direction and shape.

Chain of UniProt A8B2U2 (A8B2U2 whole entry, looked up): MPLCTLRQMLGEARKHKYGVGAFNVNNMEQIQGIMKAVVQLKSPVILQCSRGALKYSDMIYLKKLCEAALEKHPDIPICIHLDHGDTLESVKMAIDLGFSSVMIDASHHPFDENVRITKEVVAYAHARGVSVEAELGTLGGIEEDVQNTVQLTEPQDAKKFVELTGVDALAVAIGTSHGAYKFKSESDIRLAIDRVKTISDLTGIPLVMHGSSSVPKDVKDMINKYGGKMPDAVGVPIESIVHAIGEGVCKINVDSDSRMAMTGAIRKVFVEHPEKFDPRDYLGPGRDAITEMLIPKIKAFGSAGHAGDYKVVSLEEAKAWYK

How did the Potency turn out when `O=C(CNS(=O)(=O)c1cccc(Cl)c1)OCc1csc(-c2ccccc2)n1` was run?
The Potency was “inactive”.

`CCOC(=O)C1(Cc2cccc(OC)c2)CCCN(Cc2cc(OC)c(O)c(OC)c2)C1` (centres undefined) was tested. Which Potency did it give?
Its Potency is inconclusive: 12.6 µM [inhibitor, partial curve].

Which Potency does the source give for `COc1cccc(OC)c1OCCCNC1CCCC1` here?
Its Potency is inconclusive: 14.1 µM [inhibitor, partial curve].

With `Cc1ccccc1OCCN1CCCC1` as the molecule, how does the Potency read?
The Potency was inconclusive: 15.8 µM [inhibitor, partial curve].

`CCOC(=O)/C(C#N)=C/c1cn(CCOc2ccc(OC)cc2)c2ccccc12` was tested. Which Potency did it give?
Its Potency is “inactive”.

With `O=C(Cc1ccc(Cl)cc1)NCC(=O)N1CCCCC1` as the molecule, how does the Potency read?
The Potency was “inactive”.

How did the Potency turn out when `COc1ccc(/C=N/Nc2nc(-c3ccc(C)cc3)c(C#N)c(=O)[nH]2)cc1` was run?
Its Potency is inconclusive: 15.8 µM [inhibitor, partial curve].

Which Potency does the source give for `CCC(=O)Nc1nnc(S(=O)(=O)N2CCc3ccccc32)s1` here?
Its Potency is inconclusive: 39.8 µM [inhibitor, single point].

How did the Potency turn out when `c1cc2c(cc1-c1[nH]ncc1CN1CC3C[C@@H]4CC1C[C@H](C3)C4)OCO2` was run?
Its Potency is inconclusive: 28.1 µM [inhibitor, single point].

For `CC[C@@]1(O)C(=O)OCc2c1cc1n(c2=O)Cc2cc3c(N)cccc3nc2-1`, which Potency is on record?
Its Potency is inconclusive: 1.41 µM [inhibitor, full curve].

Which Potency does the source give for `COc1ccc(C)cc1NCc1cccc(OC)c1OC` here?
Its Potency is inconclusive: 17.7 µM [inhibitor, single point].

How did the Potency turn out when `CC1(OC(=O)CCc2ccccc2)C(=O)C=C2C=C(c3ccc(C#N)cc3)N(CCc3c[nH]c4ccccc34)C=C2C1=O` (centres undefined) was run?
The Potency was inconclusive: 1.41 µM [inhibitor, full curve] and inconclusive: 1.26 µM [inhibitor, single point].

`Cc1nc(NS(=O)(=O)c2ccccc2)sc1C(=O)N/N=C/c1ccccc1` was tested. Which Potency did it give?
The Potency was inconclusive: 15.8 µM [inhibitor, partial curve].

`Nc1nc(-c2ccco2)c(-c2ccco2)s1` was tested. Which Potency did it give?
The Potency was inconclusive: 15.8 µM [inhibitor, partial curve].

For `CN1CC[C@@]2(C)c3cc(O)ccc3N(C)C12` (some centres undefined), which Potency is on record?
The Potency was active: 2.81 µM.

How did the Potency turn out when `CCN(CC)/C(N)=N/c1nc(C)cc(C)n1` was run?
The Potency was “inactive”.

`CCC(Sc1nc2ccncc2[nH]1)C(=O)Nc1ccc(C)c(Cl)c1` (centres undefined) was tested. Which Potency did it give?
The Potency was inconclusive: 35.5 µM [inhibitor, single point].

`O=C(O)CC/C=C\CC[C@H]1[C@@H](N2CCCCC2)[C@@H](O)C[C@@H]1OCc1ccc(-c2ccccc2)cc1` was tested. Which Potency did it give?
The Potency was “inactive”.

How did the Potency turn out when `COc1cccc(CNCCc2ccc(F)cc2)c1` was run?
The Potency was inconclusive: 12.6 µM [inhibitor, partial curve].

Which Potency does the source give for `Cc1ccc2c(c1)N(CCCC(=O)NCCC1=CCCCC1)C(=O)CO2` here?
The Potency was inconclusive: 31.5 µM [activator, single point].

How did the Potency turn out when `C=CC1=C2C=C(C3CC3)N(CC(C)C)C=C2C(=O)C(C)(OC(=O)c2ccco2)C1=O` (centres undefined) was run?
The Potency was inconclusive: 0.561 µM [inhibitor, full curve].

`Nc1ccccc1N=c1ssnc1Cl` was tested. Which Potency did it give?
Its Potency is inconclusive: 15.8 µM [inhibitor, partial curve].

How did the Potency turn out when `O=C1c2ccccc2C(=O)c2c1ncn2-c1ccccc1` was run?
The Potency was inconclusive: 6.29 µM [inhibitor, partial curve].

For `N#C/C(=C(/O)CSc1n[nH]c(N)n1)c1nc2ccccc2[nH]1`, which Potency is on record?
Its Potency is inconclusive: 19.9 µM [inhibitor, partial curve].

Which Potency does the source give for `COc1ccc2[nH]cc(/C=C/c3cc[n+](C)cc3)c2c1` here?
Its Potency is inconclusive: 28.2 µM [inhibitor, partial curve].

Which Potency does the source give for `S=C(NCc1cccs1)Nc1cc(Cl)cc(Cl)c1` here?
The Potency was “inactive”.

With `Cc1nn(-c2ccccc2)c2c1C(c1ccco1)C(C#N)=C(N)O2` (centres undefined) as the molecule, how does the Potency read?
Its Potency is inconclusive: 15.8 µM [inhibitor, partial curve].

For `CCOC(=O)C1CCCCN1Cc1ccc(F)c(Br)c1` (centres undefined), which Potency is on record?
Its Potency is inconclusive: 17.7 µM [inhibitor, partial curve].

Which Potency does the source give for `CC(=O)n1cc([C@H]2C=C(C(=O)NCc3ccccc3)O[C@@H](OCc3ccc(CO)cc3)C2)c2ccccc21` here?
The Potency was inconclusive: 17.7 µM [inhibitor, partial curve].

For `COCCNC(=O)CN1C(=O)NC2(CCCc3cc(OC)ccc32)C1=O` (centres undefined), which Potency is on record?
The Potency was “inactive”.

For `CCOC(=O)C(C)n1cnc2c(nnn2Cc2ccc(C)cc2)c1=O` (centres undefined), which Potency is on record?
The Potency was “inactive”.

For `O=[N+]([O-])c1ccc(O)c(/C=N/Nc2nn[nH]n2)c1`, which Potency is on record?
Its Potency is inconclusive: 1.58 µM [inhibitor, full curve].

With `CCOC(=O)c1c(C)nc2c(C#N)cnn2c1C` as the molecule, how does the Potency read?
Its Potency is “inactive”.

Which Potency does the source give for `CN(C)S(=O)(=O)c1cccc(NC(=S)Nc2ccc(Cl)cc2Cl)c1` here?
Its Potency is “inactive”.

`Cn1ncc(Cl)c1C(=O)N/N=C/c1cccc(OC2CSC2)c1` was tested. Which Potency did it give?
The Potency was inconclusive: 19.9 µM [inhibitor, partial curve].

How did the Potency turn out when `CCOC(=O)Cc1csc(NC(=S)NC(=O)c2ccc(Cl)cc2)n1` was run?
The Potency was inconclusive: 14.1 µM [inhibitor, partial curve].

How did the Potency turn out when `Cc1cc(NC(=O)Cc2ccccc2)c2ccccc2n1` was run?
The Potency was “inactive”.

For `O=C(Nc1ccccc1C(=O)OCC(=O)c1c[nH]c2ccccc12)c1ccco1`, which Potency is on record?
Its Potency is “inactive”.

How did the Potency turn out when `CCCCC1=CC2=CC(=O)C(C)(OC(=O)CC)C(=O)C2=CN1CC(C)C` (centres undefined) was run?
Its Potency is inconclusive: 281 nM [inhibitor, full curve] and inconclusive: 561 nM [inhibitor, full curve].

How did the Potency turn out when `FC(F)(F)c1ccccc1NC(=S)Nc1ccccc1` was run?
Its Potency is inconclusive: 31.6 µM [inhibitor, single point].

Which Potency does the source give for `COCCCN=C(c1ccco1)n1c(=S)nc(-c2ccco2)n(CCCOC)c1=S` here?
Its Potency is inconclusive: 15.8 µM [inhibitor, partial curve].

`COC(=O)/C(=C/Nc1cccc2ccccc12)[N+](=O)[O-]` was tested. Which Potency did it give?
The Potency was inconclusive: 0.5 µM [inhibitor, full curve].

For `CC1CN(C)CCC1OC(=O)c1ccccc1` (centres undefined), which Potency is on record?
Its Potency is inconclusive: 17.8 µM [inhibitor, single point].

With `O=C(Nc1nc(-c2ccccn2)cs1)c1cc(Cl)ccc1[N+](=O)[O-]` as the molecule, how does the Potency read?
Its Potency is inconclusive: 3.97 µM [inhibitor, full curve].
